Measurements published in publication PMC10924461, “Structure and ligand binding in the putative anti-microbial peptide transporter protein, YejA” (Microbiology, 2024).
Results are given in words; binding and its absence hold for the method and conditions named. Some results given as binding are weak or reduced against the parent protein; the word gives no strength.

T1: YejA, periplasmic solute-binding protein of the YejABEF ABC transporter from E. coli (E. coli K12) (UniProt P33913)
T1 sequence: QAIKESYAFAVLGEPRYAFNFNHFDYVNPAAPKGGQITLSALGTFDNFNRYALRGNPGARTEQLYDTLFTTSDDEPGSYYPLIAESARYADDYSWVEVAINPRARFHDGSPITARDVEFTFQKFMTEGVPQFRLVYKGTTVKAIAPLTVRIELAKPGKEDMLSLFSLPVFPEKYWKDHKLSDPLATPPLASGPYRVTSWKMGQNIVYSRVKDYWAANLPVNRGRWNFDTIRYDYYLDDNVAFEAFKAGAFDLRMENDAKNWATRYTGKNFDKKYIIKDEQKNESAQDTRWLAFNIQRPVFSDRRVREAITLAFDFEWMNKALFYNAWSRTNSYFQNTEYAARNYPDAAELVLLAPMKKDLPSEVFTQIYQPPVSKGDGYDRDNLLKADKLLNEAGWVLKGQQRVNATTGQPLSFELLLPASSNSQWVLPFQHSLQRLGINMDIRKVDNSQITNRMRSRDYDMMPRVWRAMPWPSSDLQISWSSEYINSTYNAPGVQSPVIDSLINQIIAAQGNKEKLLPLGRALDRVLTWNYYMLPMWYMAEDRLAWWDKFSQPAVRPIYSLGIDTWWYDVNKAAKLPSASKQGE


What was measured:
[1] = biological target: T1, YejA, periplasmic solute-binding protein of the YejABEF ABC transporter from E. coli (E. coli K12); assay: native MS; ESI-MS of purified YejA with co-purifying peptides in 1 M ammonium acetate, ion funnel voltage 100 eV (complexes preserved) or 200 eV (dissociation favoured)
[2] = biological target: T1, YejA, periplasmic solute-binding protein of the YejABEF ABC transporter from E. coli (E. coli K12); assay: SEC-MALS; YejA at 1 mg ml^-1 or 3 mg ml^-1 in 20 mM Tris-HCl pH 8.0, 50 mM NaCl on Superdex 200 10/300; both purified
[3] = biological target: T1, YejA, periplasmic solute-binding protein of the YejABEF ABC transporter from E. coli (E. coli K12); assay: thermal shift assay (SYPRO orange); 0.5 mg ml^-1 (7.3 µM) YejA, 5x SYPRO orange, 25 µl, 25-96 °C in 1 °C/30 s steps; synthetic peptides added; a shift greater than 3 °C taken as significant; both purified

binding [1] | Binder | also measured
binds | AFAVLGEPRYAFNFNHFDY | 
binds | VLGEPRYAFNFNHFDY | 

The remaining lines, values behind:

Binder | binding [1] | also measured
AVLGEPRYAFNFNHFDY | binds | 
VLGEPRYAFNFNH | binds | 
YejA, periplasmic solute-binding protein of the YejABEF ABC transporter from E. coli (protein, UniProt P33913 20-604) QAIKESYAFAVLGEPRYAFNFNHFDYVNPAAPKGGQITLSALGTFDNFNRYALRGNPGARTEQLYDTLFTTSDDEPGSYYPLIAESARYADDYSWVEVAINPRARFHDGSPITARDVEFTFQKFMTEGVPQFRLVYKGTTVKAIAPLTVRIELAKPGKEDMLSLFSLPVFPEKYWKDHKLSDPLATPPLASGPYRVTSWKMGQNIVYSRVKDYWAANLPVNRGRWNFDTIRYDYYLDDNVAFEAFKAGAFDLRMENDAKNWATRYTGKNFDKKYIIKDEQKNESAQDTRWLAFNIQRPVFSDRRVREAITLAFDFEWMNKALFYNAWSRTNSYFQNTEYAARNYPDAAELVLLAPMKKDLPSEVFTQIYQPPVSKGDGYDRDNLLKADKLLNEAGWVLKGQQRVNATTGQPLSFELLLPASSNSQWVLPFQHSLQRLGINMDIRKVDNSQITNRMRSRDYDMMPRVWRAMPWPSSDLQISWSSEYINSTYNAPGVQSPVIDSLINQIIAAQGNKEKLLPLGRALDRVLTWNYYMLPMWYMAEDRLAWWDKFSQPAVRPIYSLGIDTWWYDVNKAAKLPSASKQGE |  | binding [2]: binds weakly
YAFNFN |  | binding [3]: no binding (tested: 2.5 mg ml^−1 (3.23 mM))
LGEPR |  | binding [3]: no binding (tested: 5 mg ml^−1 (8.76 mM))
